Source: patent publication US4378360A, “6-{3-[4-(Substituted benzyl)-1-piperazinyl]propyloxy}-4,9-dihydro-4,9-dioxo-1H-naphtho[2,3-d-]- v” (Beecham Group Limited, priority 1980, dated 1983)
Not every entry of the source has a single result; some have several. They are shown here; other results are not. An entry can have further records. Values given together read as repeated measurements on other runs, samples or individuals; a mean can stand among them.

Biological target: T1, histamine on isolated guinea pig ileum (Cavia porcellus, UniProt P31389)
T1 construct: strips of terminal guinea pig ileum suspended in a 4 ml capacity organ bath; from tissue; host or cells: terminal ileum strips of guinea pig (Dunkin Hartley male white guinea pigs)
Experiment: Antihistamine activity (in vitro): antagonism of the spasmogenic effects of histamine on isolated guinea pig ileum
Details: Tyrode solution, 30° C., antagonist 5-640 ng/ml, several assays per compound, read-out: pA2 values obtained in different assays (converted)
Method: (b) antagonise the spasmogenic effects of histamine on isolated guinea pig ileum.
Charles River Sprague Dawley male rats of 225-275 g and Dunkin Hartley male white guinea pigs of 250-300 g were used.
The anti-histamine activity of these compounds were measured in terms of pA2 values on guinea pig ileum using the method described by Arunlakshana, O. and Schild, H. O. (Brit J Pharm, 14, 1959, 48).
The pA2 is defined as the negative logarithm of the molar concentration of antagonist that will reduce the response of a double dose of agonist to that of a single dose.
Assays were carried out using strips of terminal guinea pig ileum suspended in a 4 ml capacity organ bath. The ileum was immersed in aerated Tyrode solution at a temperature of 30° C. and a tension of 1 gm was applied to the gut. Longitudinal contractions of the gut were recorded isotonically using a 2LD01 Devices transducer, a R2502-2 Devices optical wedge and a RE511.20 Smiths servoscribe flat bed recorder.
The tissue was constantly immersed in Tyrode solution washing was by fluid displacement from below. […]
The height of the response was measured in mms and a mean value calculated. […] The dose of histamine which produced a response of 100 mms were obtained for each curve from the graph and the ratio designated CR was calculated from [formula] […]

T1 sequence (P31389 whole entry): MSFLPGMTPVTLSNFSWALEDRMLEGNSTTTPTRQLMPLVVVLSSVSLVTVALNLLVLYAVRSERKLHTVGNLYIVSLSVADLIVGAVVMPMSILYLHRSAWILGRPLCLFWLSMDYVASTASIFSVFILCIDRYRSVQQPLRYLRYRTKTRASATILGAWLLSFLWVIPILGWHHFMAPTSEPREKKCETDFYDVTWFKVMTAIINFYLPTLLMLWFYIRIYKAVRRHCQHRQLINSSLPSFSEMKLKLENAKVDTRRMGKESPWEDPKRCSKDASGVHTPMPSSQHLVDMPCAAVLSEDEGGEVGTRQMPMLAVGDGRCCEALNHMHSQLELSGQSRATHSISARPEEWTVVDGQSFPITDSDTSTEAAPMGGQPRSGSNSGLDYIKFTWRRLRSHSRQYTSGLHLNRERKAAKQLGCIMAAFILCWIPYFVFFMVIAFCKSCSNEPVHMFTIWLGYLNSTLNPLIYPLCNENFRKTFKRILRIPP

SMILES: O=C1c2cccc(OCCCN3CCN(Cc4ccc(Cl)cc4)CC3)c2C(=O)c2nn[nH]c21 [Example 4, 5-{3-[4-(4-Chlorobenzyl)-1-piperazinyl]-propyloxy}-4,9-dihydro-4,9-dioxo-1H-naphtho-[2,3-d]-v-triazole]
- Kb: 891, 794, 63.1, 316 nM [one passage]
